Measured values as given in PMC12136788.
The other results are listed elsewhere or left out.

B1: chr19:36966019:36966020:+_ENSMUSG00000024811_ENSMUST00000025729|mus_hu|motif|central (ssRNA)
RNA: GGGAGUUCUACAGUCCGACGAUCCAUGAAAGCUAGAAAUUGAGGCCAGUAAAGAAGCUUCUUUAGUAAUCAGGACCGGUCAUAGUUAGAGCUCUUUGGAAUGUGUCUCAUACAUACAAAGGUAUCACAAAUUAAAUCUUCAGCCAACAGAGGAUUGAGCAUCA
B2: chr4:17488853:17488854:-_ENSG00000151552_ENST00000428702|hu_mus|FALSE|FALSE (ssRNA)
RNA: GGGAGUUCUACAGUCCGACGAUCUAGGCUUCCUGAGUUUGGCCGUUUGUUCCCAGUGAUCCAGUCAUGGAAGGUUUCCACCAGGAACUCUAAGGGUGUCCAGGAGCUGAAGUCUGCCUCAGGCAUUGAUUUCCUGUUCAUCGGCAACAGAGGAUUGAGCAUCA
B3: chr5:143539998:143539999:-_ENSG00000145817_ENST00000274496|hu_mus|FALSE|FALSE (ssRNA)
RNA: GGGAGUUCUACAGUCCGACGAUCAGUUCAGAAGACAGAAAUCAGGGCAAAGACUCCAUACAACAAAGCACAGGGAUAUGCCACUAAAAGUUGUUGUCCAUCCAUAGCUAAUGCAGAAAUAAAAAUUUUGGAAGCAGAAAAACUCAACAGAGGAUUGAGCAUCA
B4: chr10:90581586:90581587:-_ENSMUSG00000061904_ENSMUST00000076694|mus_mus|FALSE|FALSE (ssRNA)
RNA: GGGAGUUCUACAGUCCGACGAUCAGCUUCCAUAGGAGCCAGGGCAAUGUCAGCGAAGAAUUCAGCACUGGCAGAAGAAGCUAAAUACAGUGAUGUGCGCCACAGGUAGGUGUUUUCCUCACCAAGUAUGUUGCUAUAUAAGGCCAACAGAGGAUUGAGCAUCA
B5: chr2:179515052:179515053:+_ENSMUSG00000000305_ENSMUST00000000314|mus_hu|mus_mus_mus_hu_False|98_108 (ssRNA)
RNA: GGGAGUUCUACAGUCCGACGAUCGCUUUCCCGCGCAGUGACGGUAAACGCCACCUGCUCGGAGGGGACCUGCAGCUCCCGGGUGGCGAAGACUGUCCCAUCUGCCCCAACUUUGAAGUCCAUGCUGUUGGUCUCAUAUUGUGUCAACAGAGGAUUGAGCAUCA
B6: chr4:106585523:106585524:+_ENSMUSG00000061887_ENSMUST00000030367|mus_mus|motif|central (ssRNA)
RNA: GGGAGUUCUACAGUCCGACGAUCAGGUCUGUGCAGAUUUCUGUGCUCCUACGUGCAGUAAAUAUUCGUAGACGUAUAAAGCGGACUUUUCCCGAGCCUGCCCGUCCGAGGGCACCGCCGAGCCUUUGCCUUUGGCAAACAUGGCAACAGAGGAUUGAGCAUCA
B7: chr2:128036804:128036805:-_ENSG00000163161_ENST00000285398|hu_hu|motif|central (ssRNA)
RNA: GGGAGUUCUACAGUCCGACGAUCGACAAUAAUCUUGUCAUUCCUCCUUUCAUGAAACUUGAUCAGAAACUGGCAAGCUCGGAAUUUGUUGGGGUUCAUGGUGUACAGCAAGAUUCGUUUCUUGGUUUUGAUUGCCACAUAUUCCAACAGAGGAUUGAGCAUCA
B8: chr6:13622506:13622507:-_ENSG00000010017_ENST00000011619|hu_mus|motif|central (ssRNA)
RNA: GGGAGUUCUACAGUCCGACGAUCAGGAAGCAAUGUAAAGCGACAAAAACCUGUCCCCAGUACAUAAUUAAAAAAAAAUCGGAAUUUCAAAUCAGCAGAGCCGGUCUACUUCCAUGUUGACUGUUUGCCACAAUGUGAGUGUGACAACAGAGGAUUGAGCAUCA
B9: chr17:6074196:6074197:-_ENSMUSG00000015659_ENSMUST00000097432|mus_mus|FALSE|FALSE (ssRNA)
RNA: GGGAGUUCUACAGUCCGACGAUCAUCUUAUUAUAUUUCGGAUAUUUCUCCAGGGCGUGCGACUUUUUGAUCGGGGAGCAAAGGAUCCUAUCCUCCUGCAACAGAUGACACAGUAGGCAGCCAGGGACAUCCUGCCGGCGCAAUCAACAGAGGAUUGAGCAUCA
B10: 54841758_54841878_4210_3pUTR_ENSMUSG00000058446_ENSMUST00000079869|mouse|control|control (ssRNA)
RNA: GGGAGUUCUACAGUCCGACGAUCAGUUUUAAGAGUUUCAUACUUCGCUCAUCUUUAGCUUCCUACUGGGGAACUCCCCUUAUUUCCCUUAAGUCAAUACAGAAAAAGCAGGUACUAUUUACAUCGAAUCCACAAUCCUUCUUACAACAGAGGAUUGAGCAUCA
B11: chr18:33956166:33956167:-_ENSMUSG00000024376_ENSMUST00000025234|mus_mus|FALSE|FALSE (ssRNA)
RNA: GGGAGUUCUACAGUCCGACGAUCCUUGGAUUUGGUUUUAGUUUGGGGUGAGGGAGAUUGUGGGAAAGGCCACAGUUCAACCUAAGGAGUUAAGGGUAGAGCUUGGCAAGCACUAUCACUGAGCAGUCUACCCCCCAACUGAACCAACAGAGGAUUGAGCAUCA
B12: 27673724_27673844_8167_CDS_ENSMUSG00000022263_ENSMUST00000090247|mouse|control|control (ssRNA)
RNA: GGGAGUUCUACAGUCCGACGAUCGUUCUCCAUGAUAACUGCACUCGUAUGGCCCAAGACGAAGCCCGGAAUCCAGCCCUCGGCUGCGGGGCACUGGUCAGUGGCGGCUCGGAACACCAGAAACAUGUUCUGCUGGUUGCUGGCCAACAGAGGAUUGAGCAUCA
B13: chr2:202488911:202488912:-_ENSG00000155755_ENST00000286196|hu_mus|hu_hu_hu_mus_False|38_108 (ssRNA)
RNA: GGGAGUUCUACAGUCCGACGAUCAUUUAACAUUUUUUCAUAAUCUCCAGUAGCAUUUCAGCAUUAUGUAACAAAAGCUCAAUUGUAAAUACAUGUAUAUACAUCUUAUACACUUAAAAACACGAGUGGGGAGCGCAGGCGCCACAACAGAGGAUUGAGCAUCA
B14: chr3:176740097:176740098:-_ENSG00000177565_ENST00000430069|hu_mus|hu_hu_hu_mus_True|48_48 (ssRNA)
RNA: GGGAGUUCUACAGUCCGACGAUCUGUUUUGUAUACCACAAAAGGAGGCACUUUCAGUAUCUGCAAAAGGUGUUUAGUCCUAAAACAUACUUACCUAGAGGAUAACUCAGGAAAACAAUCUGUUACACUCUAAGACCUACUCCACAACAGAGGAUUGAGCAUCA

Target: T1, UNK ZnF1-3 (human, UniProt Q9C0B0 31-174)
T1 sequence: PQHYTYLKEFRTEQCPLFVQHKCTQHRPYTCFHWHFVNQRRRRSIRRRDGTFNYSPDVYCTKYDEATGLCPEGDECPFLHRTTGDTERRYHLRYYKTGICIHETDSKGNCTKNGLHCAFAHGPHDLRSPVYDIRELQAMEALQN
Assay: nsRBNS (natural sequence RNA bind-n-seq); RBNS binding buffer (assumed for nsRBNS): 25 mM Tris pH 7.5, 150 mM KCl, 3 mM MgCl2, 0.01% Triton X-100, 500 ug/ml BSA, 20 U/ml SUPERase-In, 4 C; UNK is unkempt and MSI1 is Musashi-1; names of the RNAs are library labels; protein concentration not given here; high values mean tight binding

First: B1
Second: B2
The binding signal of the first is higher: 1.44 enrichment R for the first, 0.59 enrichment R for the second.

Compared with B3, B4 is higher in binding signal: 1.56 enrichment R for the first, 1.8 enrichment R for the second.

Going from B5 to B6, the binding signal rises from 0.728 enrichment R to 0.877 enrichment R.

Going from B7 to B8, the binding signal rises from 0.621 enrichment R to 2.35 enrichment R.

First: B9
Second: B10
The binding signal of the first is higher: 1.61 enrichment R for the first, 0.769 enrichment R for the second.

First: B11
Second: B12
The binding signal of the first is lower: 1.04 enrichment R for the first, 1.35 enrichment R for the second.

Going from B13 to B14, the binding signal rises from 0.773 enrichment R to 0.864 enrichment R.
